{"source": "the supplement of paper PMC8728848", "binders": {"B1": {"name": "CVNH3T (Magnaporthe grisea) (protein)", "chain": "GSHIGPYGNYAGNFSGSSRDICLDGARLRAECRRGDGGYSTSVIDLNRYLSNDNGHFRWVSGGGGGGGTATVTVQQGDTLRDIGRRFDCDFHEIARRNNIQNEDLIYPGQVLQVPTKGGSGGGAGNFWDSARDVRLVDGGKVLEAELRYSGGWNRSRIYLDEHIGNRNGELIHC"}}, "experiment_in_all_cases": "glycan array binding signal (z-score within array); higher = stronger binding", "details_in_all_cases": "glycan notation: IUPAC condensed, linker removed", "key": {"[1]": {"molecular_target": "Fuc(a1-3)[Gal(b1-4)]GlcNAc(b1-4)Gal(b1-4)[Fuc(a1-3)]GlcNAc(b1-4)Gal(b1-4)[Fuc(a1-3)]GlcNAc", "method_in_brief": "(§1)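 From the Consortium for Functional Glycomics database, 3228 arrays were curated, keeping only those whose protein sequence was available. Binding is given as a within-array Z-score averaged across arrays sharing a protein sequence and across linkers. Negative Z-scores can be read as non-binding.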"}, "[2]": {"molecular_target": "Fuc(a1-3)[Gal3S(b1-4)]GlcNAc", "method_in_brief": "as §1"}, "[3]": {"molecular_target": "Fuc(a1-3)[GalNAc(b1-4)]Gal(b1-4)GlcNAc", "method_in_brief": "as §1"}, "Fuc(a1-4)GlcNAc": {"molecular_target": "Fuc(a1-4)GlcNAc", "method_in_brief": "as §1"}, "Fuc(b1-3)GlcNAc": {"molecular_target": "Fuc(b1-3)GlcNAc", "method_in_brief": "as §1"}, "Gal(a1-2)Gal": {"molecular_target": "Gal(a1-2)Gal", "method_in_brief": "as §1"}, "Gal(a1-3)Gal": {"molecular_target": "Gal(a1-3)Gal", "method_in_brief": "as §1"}, "Gal(a1-3)Gal(b1-3)Glc": {"molecular_target": "Gal(a1-3)Gal(b1-3)Glc", "method_in_brief": "as §1"}, "Gal(a1-3)Gal(b1-3)GlcNAc": {"molecular_target": "Gal(a1-3)Gal(b1-3)GlcNAc", "method_in_brief": "as §1"}, "Gal(a1-3)Gal(b1-4)GlcNAc": {"molecular_target": "Gal(a1-3)Gal(b1-4)GlcNAc", "method_in_brief": "as §1"}, "[4]": {"molecular_target": "Gal(a1-3)Gal(b1-4)[Fuc(a1-3)]GalNAc", "method_in_brief": "as §1"}, "Gal(a1-3)GlcNAc": {"molecular_target": "Gal(a1-3)GlcNAc", "method_in_brief": "as §1"}, "[5]": {"molecular_target": "Gal(a1-3)[Gal(a1-4)]Gal(b1-4)GlcNAc", "method_in_brief": "as §1"}, "Gal(a1-4)Gal(b1-4)Gal": {"molecular_target": "Gal(a1-4)Gal(b1-4)Gal", "method_in_brief": "as §1"}, "Gal(a1-4)Gal(b1-4)GalNAc": {"molecular_target": "Gal(a1-4)Gal(b1-4)GalNAc", "method_in_brief": "as §1"}, "Gal(a1-4)GlcNAc": {"molecular_target": "Gal(a1-4)GlcNAc", "method_in_brief": "as §1"}, "Gal(a1-6)Glc": {"molecular_target": "Gal(a1-6)Glc", "method_in_brief": "as §1"}, "Gal(b1-2)Gal": {"molecular_target": "Gal(b1-2)Gal", "method_in_brief": "as §1"}, "Gal(b1-3)Gal": {"molecular_target": "Gal(b1-3)Gal", "method_in_brief": "as §1"}, "Gal(b1-3)GalNAc": {"molecular_target": "Gal(b1-3)GalNAc", "method_in_brief": "as §1"}, "[6]": {"molecular_target": "Gal(b1-3)GalNAc(b1-3)Gal(a1-4)Gal(b1-4)Glc", "method_in_brief": "as §1"}, "[7]": {"molecular_target": "Gal(b1-3)GalNAc(b1-3)Gal(b1-4)Glc", "method_in_brief": "as §1"}, "[8]": {"molecular_target": "Gal(b1-3)GalNAc(b1-3)Gal(b1-4)GlcNAc", "method_in_brief": "as §1"}, "[9]": {"molecular_target": "Gal(b1-3)GalNAc(b1-4)Gal(b1-4)Glc", "method_in_brief": "as §1"}, "[10]": {"molecular_target": "Gal(b1-3)GalNAc(b1-4)[Neu5Ac(a2-3)]Gal(b1-4)Glc", "method_in_brief": "as §1"}, "[11]": {"molecular_target": "Gal(b1-3)[Fuc(a1-4)]GlcNAc", "method_in_brief": "as §1"}, "[12]": {"molecular_target": "Gal(b1-3)[Fuc(a1-4)]GlcNAc(b1-3)Gal(b1-4)GlcNAc", "method_in_brief": "as §1"}, "[13]": {"molecular_target": "Gal(b1-3)[Fuc(a1-4)]GlcNAc(b1-3)Gal(b1-4)[Fuc(a1-3)]GlcNAc", "method_in_brief": "as §1"}, "[14]": {"molecular_target": "Gal(b1-3)[GlcNAc(b1-6)]GalNAc", "method_in_brief": "as §1"}, "[15]": {"molecular_target": "Gal(b1-3)[GlcNAc(b1-6)]GlcNAc", "method_in_brief": "as §1"}, "[16]": {"molecular_target": "Gal(b1-3)[Neu5Ac(a2-6)]GalNAc", "method_in_brief": "as §1"}, "[17]": {"molecular_target": "Gal(b1-3)[Neu5Ac(a2-6)]GlcNAc", "method_in_brief": "as §1"}, "[18]": {"molecular_target": "Gal(b1-3)[Neu5Ac(a2-6)]GlcNAc(a1-4)Gal(b1-4)Glc", "method_in_brief": "as §1"}, "[19]": {"molecular_target": "Gal(b1-3)[Neu5Ac(b2-6)]GlcNAc", "method_in_brief": "as §1"}, "[20]": {"molecular_target": "Gal(b1-4)GalNAc(a1-3)[Fuc(a1-2)]Gal(b1-4)GlcNAc", "method_in_brief": "as §1"}, "[21]": {"molecular_target": "Gal(b1-4)GalNAc(b1-3)[Fuc(a1-2)]Gal(b1-4)GlcNAc", "method_in_brief": "as §1"}, "Gal(b1-4)Glc": {"molecular_target": "Gal(b1-4)Glc", "method_in_brief": "as §1"}, "Gal(b1-4)Glc6S": {"molecular_target": "Gal(b1-4)Glc6S", "method_in_brief": "as §1"}, "Gal(b1-4)GlcNAc": {"molecular_target": "Gal(b1-4)GlcNAc", "method_in_brief": "as §1"}, "[22]": {"molecular_target": "Gal(b1-4)GlcNAc(b1-2)Man(a1-3)[Gal(b1-4)GlcNAc(b1-2)Man(a1-6)]Man(b1-4)GlcNAc(b1-4)GlcNAc", "method_in_brief": "as §1"}, "[23]": {"molecular_target": "Gal(b1-4)GlcNAc(b1-3)Gal(b1-4)Glc", "method_in_brief": "as §1"}, "[24]": {"molecular_target": "Gal(b1-4)GlcNAc(b1-3)Gal(b1-4)GlcNAc", "method_in_brief": "as §1"}, "[25]": {"molecular_target": "Gal(b1-4)GlcNAc(b1-3)Gal(b1-4)GlcNAc(b1-3)Gal(b1-4)GlcNAc", "method_in_brief": "as §1"}, "[26]": {"molecular_target": "Gal(b1-4)GlcNAc(b1-3)Gal(b1-4)[Fuc(a1-3)]GlcNAc(b1-3)Gal(b1-4)[Fuc(a1-3)]GlcNAc", "method_in_brief": "as §1"}, "[27]": {"molecular_target": "Gal(b1-4)GlcNAc(b1-3)GalNAc", "method_in_brief": "as §1"}}, "note": "The other results are listed elsewhere or left out.", "data": [{"binder": "B1", "values": [{"measurement": "glycan array binding signal (z-score)", "setting": "[1]", "value": -0.235}, {"measurement": "glycan array binding signal (z-score)", "setting": "[2]", "value": -0.228}, {"measurement": "glycan array binding signal (z-score)", "setting": "[3]", "value": -0.226}, {"measurement": "glycan array binding signal (z-score)", "setting": "Fuc(a1-4)GlcNAc", "value": -0.226}, {"measurement": "glycan array binding signal (z-score)", "setting": "Fuc(b1-3)GlcNAc", "value": -0.223}, {"measurement": "glycan array binding signal (z-score)", "setting": "Gal(a1-2)Gal", "value": -0.22}, {"measurement": "glycan array binding signal (z-score)", "setting": "Gal(a1-3)Gal", "value": -0.222}, {"measurement": "glycan array binding signal (z-score)", "setting": "Gal(a1-3)Gal(b1-3)Glc", "value": -0.221}, {"measurement": "glycan array binding signal (z-score)", "setting": "Gal(a1-3)Gal(b1-3)GlcNAc", "value": -0.224}, {"measurement": "glycan array binding signal (z-score)", "setting": "Gal(a1-3)Gal(b1-4)GlcNAc", "value": -0.193}, {"measurement": "glycan array binding signal (z-score)", "setting": "[4]", "value": -0.217}, {"measurement": "glycan array binding signal (z-score)", "setting": "Gal(a1-3)GlcNAc", "value": -0.222}, {"measurement": "glycan array binding signal (z-score)", "setting": "[5]", "value": -0.206}, {"measurement": "glycan array binding signal (z-score)", "setting": "Gal(a1-4)Gal(b1-4)Gal", "value": 2.07}, {"measurement": "glycan array binding signal (z-score)", "setting": "Gal(a1-4)Gal(b1-4)GalNAc", "value": 5.47}, {"measurement": "glycan array binding signal (z-score)", "setting": "Gal(a1-4)GlcNAc", "value": -0.216}, {"measurement": "glycan array binding signal (z-score)", "setting": "Gal(a1-6)Glc", "value": -0.224}, {"measurement": "glycan array binding signal (z-score)", "setting": "Gal(b1-2)Gal", "value": -0.185}, {"measurement": "glycan array binding signal (z-score)", "setting": "Gal(b1-3)Gal", "value": -0.056}, {"measurement": "glycan array binding signal (z-score)", "setting": "Gal(b1-3)GalNAc", "value": -0.229}, {"measurement": "glycan array binding signal (z-score)", "setting": "[6]", "value": 6.38}, {"measurement": "glycan array binding signal (z-score)", "setting": "[7]", "value": -0.203}, {"measurement": "glycan array binding signal (z-score)", "setting": "[8]", "value": -0.245}, {"measurement": "glycan array binding signal (z-score)", "setting": "[9]", "value": -0.231}, {"measurement": "glycan array binding signal (z-score)", "setting": "[10]", "value": 0.243}, {"measurement": "glycan array binding signal (z-score)", "setting": "[11]", "value": -0.22}, {"measurement": "glycan array binding signal (z-score)", "setting": "[12]", "value": -0.168}, {"measurement": "glycan array binding signal (z-score)", "setting": "[13]", "value": -0.216}, {"measurement": "glycan array binding signal (z-score)", "setting": "[14]", "value": -0.228}, {"measurement": "glycan array binding signal (z-score)", "setting": "[15]", "value": -0.23}, {"measurement": "glycan array binding signal (z-score)", "setting": "[16]", "value": -0.227}, {"measurement": "glycan array binding signal (z-score)", "setting": "[17]", "value": -0.221}, {"measurement": "glycan array binding signal (z-score)", "setting": "[18]", "value": -0.225}, {"measurement": "glycan array binding signal (z-score)", "setting": "[19]", "value": -0.238}, {"measurement": "glycan array binding signal (z-score)", "setting": "[20]", "value": -0.218}, {"measurement": "glycan array binding signal (z-score)", "setting": "[21]", "value": -0.231}, {"measurement": "glycan array binding signal (z-score)", "setting": "Gal(b1-4)Glc", "value": -0.11}, {"measurement": "glycan array binding signal (z-score)", "setting": "Gal(b1-4)Glc6S", "value": -0.229}, {"measurement": "glycan array binding signal (z-score)", "setting": "Gal(b1-4)GlcNAc", "value": -0.229}, {"measurement": "glycan array binding signal (z-score)", "setting": "[22]", "value": -0.235}, {"measurement": "glycan array binding signal (z-score)", "setting": "[23]", "value": -0.214}, {"measurement": "glycan array binding signal (z-score)", "setting": "[24]", "value": -0.234}, {"measurement": "glycan array binding signal (z-score)", "setting": "[25]", "value": -0.237}, {"measurement": "glycan array binding signal (z-score)", "setting": "[26]", "value": -0.223}, {"measurement": "glycan array binding signal (z-score)", "setting": "[27]", "value": -0.219}]}]}
